# Experimental data taken from the antibiotic and cytotoxicity screens of Wong et al. (2023).
# This is one part of the list.
# Key:
# HSkMC = human skeletal muscle cells; assay: cytotoxicity call (relative viability < 0.9); settings: 10 µM
# HepG2 = assay: cytotoxicity call (relative viability < 0.9); settings: 10 µM
# S. aureus RN4220 = assay: growth inhibition call (relative growth <= 0.2); settings: 50 µM
Structure (SMILES),cytotoxicity call (HSkMC),cytotoxicity call (HepG2),growth inhibition call (S. aureus RN4220)
COc1ccc(NC(=O)N(C)C[C@H]2Oc3ccc(NC(=O)Cn4cnnn4)cc3C(=O)N([C@H](C)CO)C[C@H]2C)cc1,inactive,inactive,inactive
C=CCOC(=O)[C@H]1[C@@H]2C(=O)O[C@@H](c3ccccc3)[C@@H](c3ccccc3)N2[C@@H](c2ccc(OCCOC(=O)[C@H]3C[C@H]4C(=O)NCC(=O)N4[C@H]3c3ccc(O)cc3)cc2)[C@]12C(=O)Nc1ccc(I)cc12,inactive,inactive,inactive
COc1ccc2c3c(n(c2c1)C)[C@@H](CO)N(C[C@]13CCN(CC1)Cc1ccccc1F)C(=O)Nc1ccc(cc1)F,inactive,active,inactive
Cc1noc(C)c1S(=O)(=O)Nc1ccc2c(c1)C(=O)N([C@@H](C)CO)C[C@H](C)[C@@H](CN(C)C)OCCCC[C@H](C)O2,inactive,inactive,inactive
COc1ccccc1NC(=O)N(C)C[C@@H]1Oc2cc(Br)ccc2S(=O)(=O)N([C@H](C)CO)C[C@H]1C,inactive,inactive,inactive
C[C@@H]1CN([C@@H](C)CO)S(=O)(=O)c2ccc(C3=CCCCC3)cc2O[C@H]1CN(C)S(=O)(=O)c1cn(C)cn1,inactive,inactive,inactive
Cc1ccc(CN)cc1Cl,inactive,inactive,inactive
NC(=O)NC(=O)C[n+]1ccc(/C=N/O)cc1,inactive,inactive,inactive
COc1ccc(NC(=O)N(C)C[C@H]2Oc3c(NC(=O)Nc4ccc(C(F)(F)F)cc4)cccc3C(=O)N([C@@H](C)CO)C[C@H]2C)cc1,inactive,active,inactive
